Test results published in patent publication US4605658A (priority 1983, dated 1986).

Columns and labels:
Vaccina virus = assay: microbe, parasite or virus in culture; format: cell-based; conditions: Orthopoxvirus vaccinia, PRK, read-out: Minimum inhibitory concentration
Polio virus-1 = assay: microbe, parasite or virus in culture; format: cell-based; conditions: HeLa, read-out: Minimum inhibitory concentration

Structure (SMILES): Nc1ncnc2c1ncn2CC(O)CO (racemic) [(RS)--DHPA, 9-(2,3-dihydroxypropyl)adenine, reference compound]
- EC50 (Vaccina virus): 30 to 70 µg/mL (≈ 143 to 335 µM)
- EC50 (Polio virus-1): > 400 µg/mL

Structure (SMILES): COC(=O)C(O)Cn1cnc2c(N)ncnc21 (racemic) [Compound 1, methylester of 3-(adenin-9-yl)-2-hydroxypropanoic acid]
- EC50 (Vaccina virus): 7 µg/mL (≈ 29.5 µM)
- EC50 (Polio virus-1): > 400 µg/mL

Structure (SMILES): CCOC(=O)C(O)Cn1cnc2c(N)ncnc21 (racemic) [Compound 2]
- EC50 (Vaccina virus): 3 µg/mL (≈ 11.9 µM)
- EC50 (Polio virus-1): > 400 µg/mL

Structure (SMILES): CCCOC(=O)C(O)Cn1cnc2c(N)ncnc21 (racemic) [Compound 3]
- EC50 (Vaccina virus): 3 to 10 µg/mL (≈ 11.3 to 37.7 µM)
- EC50 (Polio virus-1): > 400 µg/mL

Structure (SMILES): CC(C)OC(=O)C(O)Cn1cnc2c(N)ncnc21 (racemic) [Compound 4]
- EC50 (Vaccina virus): 3 µg/mL (≈ 11.3 µM)
- EC50 (Polio virus-1): > 400 µg/mL

Structure (SMILES): CCCCOC(=O)C(O)Cn1cnc2c(N)ncnc21 (racemic) [Compound 5]
- EC50 (Vaccina virus): 3 to 30 µg/mL (≈ 10.7 to 107 µM)
- EC50 (Polio virus-1): > 400 µg/mL

Structure (SMILES): CCC(C)OC(=O)C(O)Cn1cnc2c(N)ncnc21 (racemic) [Compound 6]
- EC50 (Vaccina virus): 3 µg/mL (≈ 10.7 µM)
- EC50 (Polio virus-1): > 400 µg/mL

Structure (SMILES): CC(C)COC(=O)C(O)Cn1cnc2c(N)ncnc21 (racemic) [Compound 7]
- EC50 (Vaccina virus): 3 to 30 µg/mL (≈ 10.7 to 107 µM)
- EC50 (Polio virus-1): > 400 µg/mL

Structure (SMILES): CC(C)CCOC(=O)C(O)Cn1cnc2c(N)ncnc21 (racemic) [Compound 8]
- EC50 (Vaccina virus): 10 to 30 µg/mL (≈ 34.1 to 102 µM)
- EC50 (Polio virus-1): > 400 µg/mL

Structure (SMILES): CCCCCCCCOC(=O)C(O)Cn1cnc2c(N)ncnc21 (racemic) [Compound 9]
- EC50 (Vaccina virus): 7 µg/mL (≈ 20.9 µM)
- EC50 (Polio virus-1): > 100 µg/mL

Structure (SMILES): COCCOC(=O)C(O)Cn1cnc2c(N)ncnc21 (racemic) [Compound 10]
- EC50 (Vaccina virus): 30 µg/mL (≈ 107 µM)
- EC50 (Polio virus-1): > 400 µg/mL

Structure (SMILES): Nc1ncnc2c1ncn2CC(O)C(=O)OC1CCCCC1 (racemic) [Compound 11]
- EC50 (Vaccina virus): 3 µg/mL (≈ 9.83 µM)
- EC50 (Polio virus-1): > 100 µg/mL

Structure (SMILES): Nc1ncnc2c1ncn2C[C@H](O)CO [(S)--DHPA, 9-(2,3-dihydroxypropyl)adenine, reference compound]
- EC50 (Vaccina virus): 30 to 70 µg/mL (≈ 143 to 335 µM)
- EC50 (Polio virus-1): > 400 µg/mL

≈ marks a conversion by molar mass, not a printed value.
